Source: PubChem BioAssay AID2060606 (Molecular Pharmacology Branch, DTP, NCI, 2025)
Some entries of the source have several records that differ or are many. This is not the full list of results. The source may hold further records. The values listed for one entry are repeats (runs, samples, wells, individuals or studies). Additions like (4×) stand for listed records that agree.

Test system: 922993-354-T-J3-PDC complex spheroids, viability, % test/control
Assay: Anticancer human tumor 922993-354-T-J3-PDC patient-derived endometrial carcinoma cell line growth inhibition [CLK]
Details: stronger effect = lower value
Source text: A high-throughput screen of multi-cell type tumor spheroids was designed to identify active combinations of […] and targeted small molecules. Complex spheroids include a stromal component modeled by human endothelial cells (HUVEC) and fibroblasts modeled by human mesenchymal stem cells (MSCs). The concentration ranges selected for each drug and investigational agent were based upon clinically achievable concentrations if the clinical Cmax of the agent was known.
Compounds. The drugs and investigational agents: cirtuvivint (SM08502; NSC835563), CC-671 (NSC850746), vemurafenib (NSC761431), tapotoclax (NSC804041), sotorasib (NSC818433), adagrasib (NSC831453), MRTX-1133 (NSC836407), BAY2416964 (NSC825713), copanlisib (NSC816437), inavolisib (NSC800729), abemaciclib (NSC768073), osimertinib (NSC779217), entinostat (NSC756642), eltanexor (KPT-8602, NSC794443), venetoclax (NSC766270), ceralasertib (NSC777638), bortezomib (NSC756655), olaparib (NSC753686), talazoparib (NSC767125), alisertib (NSC759677), peposertib (NSC802822), gemcitabine (NSC613327), 5-fluorouracil (NSC19893), SN-38 (NSC673596), oxaliplatin (NSC266046), paclitaxel (NSC125973), and doxorubicin (NSC123127), were obtained from the National Cancer Institute (NCI) Developmental Therapeutics Program Chemical Repository. The FDA-approved anticancer drug set is available from the Developmental Therapeutics Program at https://dtp.cancer.gov/organization/dscb/obtaining/available plates.htm. […] The stock solutions were prepared in dimethyl sulfoxide (DMSO, Sigma-Aldrich, St. Louis, MO, cat. D2650), except for the platinum complexes which were prepared in saline (Quality Biological, Gaithersburg, MD, cat. 114-055-101), at 800-fold the tested concentration and stored at -70 degrees C prior to their use. All drugs and investigational agents were tested over a range starting from a high concentration at or near the clinical Cmax and decreasing in half-log increments. If the clinical Cmax for an agent had not been determined, the highest concentration tested was 10 microM.
Cell Culture. […]
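Note: spheroids exposed to the agents for 7 days before readout.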

SMILES	viability, T/C (compound alone 0.316 µM)	viability, T/C (compound alone 0.0316 µM)
CNC(=O)c1ccc(Nc2nc(OC3CCCC3)c3c(-c4ccc5nc(C)oc5c4)c[nH]c3n2)c(OC)c1	59.2, 54.7, 57.6, 56.3, 67.2, 71.5, 65.9, 57.2, 44.3, 69.1, 67.7, 60%	
CN1CCN(c2cc(C(=O)Nc3cc4cc(-c5cnn(C)c5)ccc4cn3)ccn2)CC1	36.8, 30.9, 35.6, 49.8, 35.2, 41.6 (2×), 47.4, 40.3, 56.9, 45.4, 45.3%	112, 128, 108, 106, 103, 102, 107, 95.1, 93.9, 89.9, 125, 115%
